# This is one part of the list.
# Molecular target: T1, MBP-FoxP1dN (Mus musculus, UniProt P58462 326-579)
# T1 sequence: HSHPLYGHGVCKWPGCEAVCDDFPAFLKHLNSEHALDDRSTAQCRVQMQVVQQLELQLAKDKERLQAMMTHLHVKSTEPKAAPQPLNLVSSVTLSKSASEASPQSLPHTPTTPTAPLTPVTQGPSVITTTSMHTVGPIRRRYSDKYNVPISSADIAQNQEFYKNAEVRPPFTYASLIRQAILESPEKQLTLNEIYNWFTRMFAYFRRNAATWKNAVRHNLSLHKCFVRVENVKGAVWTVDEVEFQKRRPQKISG
# Test: PD-seq (MBP pull-down with sequencing); 20 mM Tris-HCl pH 7.5, 100 mM NaCl, 1.5 mM MgCl2, 0.4 uM protein, 0.1 uM dsDNA library, 30 min, room temperature, amylose pull-down; high values mean tight binding
# Details: protein: recombinant; tags: His6-MBP; chain copies: 2; dsDNA, one strand shown
# In short: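 Mouse FoxP3 or FoxP1 fragment lacking the N-terminus, His6-MBP-tagged and expressed in E. coli, was incubated at 0.4 µM with 0.1 µM Klenow-filled degenerate double-stranded DNA library for 30 min at room temperature in Tris pH 7.5 buffer with NaCl and MgCl2. Complexes captured on amylose resin were washed three times and their DNA sequenced on Illumina. Binding is reads-per-million enrichment of pull-down over input, replicates pooled.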
row,Sequence,binding signal
1,GATGATTGTTCTCCCAGCTGATGAATTATTATATTCGAGTAAACAAATTTTCCTAATCTTTCTGTTCAAGCGCCATCTAC,1.33 RPM ratio (pull-down/input)
2,GATGATTGTTCTCCCAGCTGATGAATTAGTATATTCGAGTAAACAAATTTTCCTAATCTTTCTGTTCAAGCGCCATCTAC,1.21 RPM ratio (pull-down/input)
3,GATGATTGTTCTCCCAGCTGATGAATTTAGGGCGTCGAGTAAACAAATTTTCCTAATCTTTCTGTTCAAGCGCCATCTAC,0.959 RPM ratio (pull-down/input)
4,GATGATTGTTCTCCCAGCTGATGAATTGCGGGGTTCGAGTAAACAAATTTTCCTAATCTTTCTGTTCAAGCGCCATCTAC,1.02 RPM ratio (pull-down/input)
5,GATGATTGTTCTCCCAGCTGATGAATTTCTTCTCTCGAGTAAACAAATTTTCCTAATCTTTCTGTTCAAGCGCCATCTAC,1.01 RPM ratio (pull-down/input)
6,GATGATTGTTCTCCCAGCTGATGAATTCTGTCATTCGAGTAAACAAATTTTCCTAATCTTTCTGTTCAAGCGCCATCTAC,1.08 RPM ratio (pull-down/input)
7,GATGATTGTTCTCCCAGCTGATGAATTGGGCGGCTCGAGTAAACAAATTTTCCTAATCTTTCTGTTCAAGCGCCATCTAC,0.76 RPM ratio (pull-down/input)
8,GATGATTGTTCTCCCAGCTGATGAATTCCGTACGTCGAGTAAACAAATTTTCCTAATCTTTCTGTTCAAGCGCCATCTAC,0.878 RPM ratio (pull-down/input)
9,GATGATTGTTCTCCCAGCTGATGAATTGGGATTGTCGAGTAAACAAATTTTCCTAATCTTTCTGTTCAAGCGCCATCTAC,1.02 RPM ratio (pull-down/input)
10,GATGATTGTTCTCCCAGCTGATGAATTCCGACAGTCGAGTAAACAAATTTTCCTAATCTTTCTGTTCAAGCGCCATCTAC,0.827 RPM ratio (pull-down/input)
11,GATGATTGTTCTCCCAGCTGATGAATTTTACTTGTCGAGTAAACAAATTTTCCTAATCTTTCTGTTCAAGCGCCATCTAC,0.907 RPM ratio (pull-down/input)
12,GATGATTGTTCTCCCAGCTGATGAATTGGAAAATTCGAGTAAACAAATTTTCCTAATCTTTCTGTTCAAGCGCCATCTAC,0.938 RPM ratio (pull-down/input)
13,GATGATTGTTCTCCCAGCTGATGAATTTCGCGTTTCGAGTAAACAAATTTTCCTAATCTTTCTGTTCAAGCGCCATCTAC,0.925 RPM ratio (pull-down/input)
14,GATGATTGTTCTCCCAGCTGATGAATTCAAAGTATCGAGTAAACAAATTTTCCTAATCTTTCTGTTCAAGCGCCATCTAC,0.966 RPM ratio (pull-down/input)
15,GATGATTGTTCTCCCAGCTGATGAATTCTCTGCTTCGAGTAAACAAATTTTCCTAATCTTTCTGTTCAAGCGCCATCTAC,0.882 RPM ratio (pull-down/input)
16,GATGATTGTTCTCCCAGCTGATGAATTACATAGCTCGAGTAAACAAATTTTCCTAATCTTTCTGTTCAAGCGCCATCTAC,1 RPM ratio (pull-down/input)
17,GATGATTGTTCTCCCAGCTGATGAATTTTGCTCCTCGAGTAAACAAATTTTCCTAATCTTTCTGTTCAAGCGCCATCTAC,0.907 RPM ratio (pull-down/input)
18,GATGATTGTTCTCCCAGCTGATGAATTGGGGTCCTCGAGTAAACAAATTTTCCTAATCTTTCTGTTCAAGCGCCATCTAC,0.772 RPM ratio (pull-down/input)
19,GATGATTGTTCTCCCAGCTGATGAATTCTCTCGGTCGAGTAAACAAATTTTCCTAATCTTTCTGTTCAAGCGCCATCTAC,0.774 RPM ratio (pull-down/input)
20,GATGATTGTTCTCCCAGCTGATGAATTCACCTTATCGAGTAAACAAATTTTCCTAATCTTTCTGTTCAAGCGCCATCTAC,0.876 RPM ratio (pull-down/input)
21,GATGATTGTTCTCCCAGCTGATGAATTAGATATATCGAGTAAACAAATTTTCCTAATCTTTCTGTTCAAGCGCCATCTAC,1.03 RPM ratio (pull-down/input)

row,Sequence,binding signal
1,GATGATTGTTCTCCCAGCTGATGAATTGCGGCGATCGAGTAAACAAATTTTCCTAATCTTTCTGTTCAAGCGCCATCTAC,1.04 RPM ratio (pull-down/input)
2,GATGATTGTTCTCCCAGCTGATGAATTCAAAGGTTCGAGTAAACAAATTTTCCTAATCTTTCTGTTCAAGCGCCATCTAC,0.815 RPM ratio (pull-down/input)
3,GATGATTGTTCTCCCAGCTGATGAATTTAATCATTCGAGTAAACAAATTTTCCTAATCTTTCTGTTCAAGCGCCATCTAC,1.04 RPM ratio (pull-down/input)
4,GATGATTGTTCTCCCAGCTGATGAATTCCCCATCTCGAGTAAACAAATTTTCCTAATCTTTCTGTTCAAGCGCCATCTAC,0.782 RPM ratio (pull-down/input)
5,GATGATTGTTCTCCCAGCTGATGAATTCTATAGGTCGAGTAAACAAATTTTCCTAATCTTTCTGTTCAAGCGCCATCTAC,0.795 RPM ratio (pull-down/input)
6,GATGATTGTTCTCCCAGCTGATGAATTCTGCCACTCGAGTAAACAAATTTTCCTAATCTTTCTGTTCAAGCGCCATCTAC,0.947 RPM ratio (pull-down/input)
7,GATGATTGTTCTCCCAGCTGATGAATTATAGGAGTCGAGTAAACAAATTTTCCTAATCTTTCTGTTCAAGCGCCATCTAC,0.95 RPM ratio (pull-down/input)
8,GATGATTGTTCTCCCAGCTGATGAATTAGACGTCTCGAGTAAACAAATTTTCCTAATCTTTCTGTTCAAGCGCCATCTAC,0.823 RPM ratio (pull-down/input)
9,GATGATTGTTCTCCCAGCTGATGAATTGTCCGAGTCGAGTAAACAAATTTTCCTAATCTTTCTGTTCAAGCGCCATCTAC,0.906 RPM ratio (pull-down/input)
10,GATGATTGTTCTCCCAGCTGATGAATTCGCTGTATCGAGTAAACAAATTTTCCTAATCTTTCTGTTCAAGCGCCATCTAC,1.04 RPM ratio (pull-down/input)
11,GATGATTGTTCTCCCAGCTGATGAATTAAGGCTTTCGAGTAAACAAATTTTCCTAATCTTTCTGTTCAAGCGCCATCTAC,0.96 RPM ratio (pull-down/input)
12,GATGATTGTTCTCCCAGCTGATGAATTTACCTGGTCGAGTAAACAAATTTTCCTAATCTTTCTGTTCAAGCGCCATCTAC,1.12 RPM ratio (pull-down/input)
13,GATGATTGTTCTCCCAGCTGATGAATTCTCAACATCGAGTAAACAAATTTTCCTAATCTTTCTGTTCAAGCGCCATCTAC,1.05 RPM ratio (pull-down/input)
14,GATGATTGTTCTCCCAGCTGATGAATTCAGTGATTCGAGTAAACAAATTTTCCTAATCTTTCTGTTCAAGCGCCATCTAC,0.979 RPM ratio (pull-down/input)
15,GATGATTGTTCTCCCAGCTGATGAATTTATAAATTCGAGTAAACAAATTTTCCTAATCTTTCTGTTCAAGCGCCATCTAC,1.14 RPM ratio (pull-down/input)
16,GATGATTGTTCTCCCAGCTGATGAATTGAAACAATCGAGTAAACAAATTTTCCTAATCTTTCTGTTCAAGCGCCATCTAC,1.6 RPM ratio (pull-down/input)
17,GATGATTGTTCTCCCAGCTGATGAATTGGCCAACTCGAGTAAACAAATTTTCCTAATCTTTCTGTTCAAGCGCCATCTAC,0.833 RPM ratio (pull-down/input)
18,GATGATTGTTCTCCCAGCTGATGAATTTCCACGTTCGAGTAAACAAATTTTCCTAATCTTTCTGTTCAAGCGCCATCTAC,0.88 RPM ratio (pull-down/input)
19,GATGATTGTTCTCCCAGCTGATGAATTTGATCCATCGAGTAAACAAATTTTCCTAATCTTTCTGTTCAAGCGCCATCTAC,0.928 RPM ratio (pull-down/input)
20,GATGATTGTTCTCCCAGCTGATGAATTGGAACTGTCGAGTAAACAAATTTTCCTAATCTTTCTGTTCAAGCGCCATCTAC,0.803 RPM ratio (pull-down/input)
21,GATGATTGTTCTCCCAGCTGATGAATTCATATTCTCGAGTAAACAAATTTTCCTAATCTTTCTGTTCAAGCGCCATCTAC,0.83 RPM ratio (pull-down/input)

row,Sequence,binding signal
1,GATGATTGTTCTCCCAGCTGATGAATTACCGTCCTCGAGTAAACAAATTTTCCTAATCTTTCTGTTCAAGCGCCATCTAC,0.877 RPM ratio (pull-down/input)
2,GATGATTGTTCTCCCAGCTGATGAATTGTGGCACTCGAGTAAACAAATTTTCCTAATCTTTCTGTTCAAGCGCCATCTAC,1.22 RPM ratio (pull-down/input)
3,GATGATTGTTCTCCCAGCTGATGAATTACCTGTATCGAGTAAACAAATTTTCCTAATCTTTCTGTTCAAGCGCCATCTAC,1.16 RPM ratio (pull-down/input)
4,GATGATTGTTCTCCCAGCTGATGAATTCCAATTATCGAGTAAACAAATTTTCCTAATCTTTCTGTTCAAGCGCCATCTAC,1.07 RPM ratio (pull-down/input)
5,GATGATTGTTCTCCCAGCTGATGAATTAGGACTCTCGAGTAAACAAATTTTCCTAATCTTTCTGTTCAAGCGCCATCTAC,0.792 RPM ratio (pull-down/input)
6,GATGATTGTTCTCCCAGCTGATGAATTTTTTGTTTCGAGTAAACAAATTTTCCTAATCTTTCTGTTCAAGCGCCATCTAC,1.13 RPM ratio (pull-down/input)
7,GATGATTGTTCTCCCAGCTGATGAATTACACTTGTCGAGTAAACAAATTTTCCTAATCTTTCTGTTCAAGCGCCATCTAC,1.17 RPM ratio (pull-down/input)
8,GATGATTGTTCTCCCAGCTGATGAATTAGCCTAGTCGAGTAAACAAATTTTCCTAATCTTTCTGTTCAAGCGCCATCTAC,0.785 RPM ratio (pull-down/input)
9,GATGATTGTTCTCCCAGCTGATGAATTGACGGTATCGAGTAAACAAATTTTCCTAATCTTTCTGTTCAAGCGCCATCTAC,1.06 RPM ratio (pull-down/input)
10,GATGATTGTTCTCCCAGCTGATGAATTCGCTTGGTCGAGTAAACAAATTTTCCTAATCTTTCTGTTCAAGCGCCATCTAC,0.862 RPM ratio (pull-down/input)
11,GATGATTGTTCTCCCAGCTGATGAATTCTTCCAATCGAGTAAACAAATTTTCCTAATCTTTCTGTTCAAGCGCCATCTAC,0.955 RPM ratio (pull-down/input)
12,GATGATTGTTCTCCCAGCTGATGAATTGTCAGAATCGAGTAAACAAATTTTCCTAATCTTTCTGTTCAAGCGCCATCTAC,1.07 RPM ratio (pull-down/input)
13,GATGATTGTTCTCCCAGCTGATGAATTACCCTCTTCGAGTAAACAAATTTTCCTAATCTTTCTGTTCAAGCGCCATCTAC,0.954 RPM ratio (pull-down/input)
14,GATGATTGTTCTCCCAGCTGATGAATTACGATCCTCGAGTAAACAAATTTTCCTAATCTTTCTGTTCAAGCGCCATCTAC,0.986 RPM ratio (pull-down/input)
15,GATGATTGTTCTCCCAGCTGATGAATTGCAACACTCGAGTAAACAAATTTTCCTAATCTTTCTGTTCAAGCGCCATCTAC,1.44 RPM ratio (pull-down/input)
16,GATGATTGTTCTCCCAGCTGATGAATTTAACATCTCGAGTAAACAAATTTTCCTAATCTTTCTGTTCAAGCGCCATCTAC,0.896 RPM ratio (pull-down/input)
17,GATGATTGTTCTCCCAGCTGATGAATTAGGATAGTCGAGTAAACAAATTTTCCTAATCTTTCTGTTCAAGCGCCATCTAC,0.902 RPM ratio (pull-down/input)
18,GATGATTGTTCTCCCAGCTGATGAATTGACCCCATCGAGTAAACAAATTTTCCTAATCTTTCTGTTCAAGCGCCATCTAC,0.961 RPM ratio (pull-down/input)
19,GATGATTGTTCTCCCAGCTGATGAATTAGGACCGTCGAGTAAACAAATTTTCCTAATCTTTCTGTTCAAGCGCCATCTAC,0.839 RPM ratio (pull-down/input)
20,GATGATTGTTCTCCCAGCTGATGAATTATCAGTGTCGAGTAAACAAATTTTCCTAATCTTTCTGTTCAAGCGCCATCTAC,1.06 RPM ratio (pull-down/input)
21,GATGATTGTTCTCCCAGCTGATGAATTCATGCAGTCGAGTAAACAAATTTTCCTAATCTTTCTGTTCAAGCGCCATCTAC,1.02 RPM ratio (pull-down/input)

# From publication PMC12820563, “FoxP3 forms a head-to-head dimer in vivo and stabilizes its multimerization on adjacent microsatellites”
